# Paper PMC12136788
# This is one part of the list.
# B1: chr1:17068045:17068226:-|3pUTR|ENSG00000117115|msi1|FALSE|unique (ssRNA)
# RNA: GGGAGUUCUACAGUCCGACGAUCCUCCUUCCACUGCCUUGACUUUCUUCCUUUUUAUUCCUGGUGCCAUCUGUCCAGGCAGCUAGACAAGAACUUGUUCGCCAGCAGCCAGAUUCAGGCCUUCCCAGGGGCAUAAUAAGUGACCAACAGAGGAUUGAGCAUCA
# B2: chr17:65014400:65014519:-|CDS|ENSG00000120063|unk|FALSE|unique (ssRNA)
# RNA: GGGAGUUCUACAGUCCGACGAUCAAACAAGACAGACUUGCUUGAGGAGAAGGUGCAAAUUGUGAGCAUCAAAGACUAUUUCCUAGAAUUUGAAGGGGAUCCCCACUGCUUAAGAGACGUCCAAAAAUUCCUGGUGGAAUGUUUCAACAGAGGAUUGAGCAUCA
# B3: ENSG00000107863:be:win_5601|CDS|ENSG00000107863|bound_else_gene|NA|bound_elsewhere_windowed (ssRNA)
# RNA: GGGAGUUCUACAGUCCGACGAUCAGGAGAAAUCGGAGAUCCCCAGACAGAGAACCCAAGCACACGAGAAAUAGCCACGACCGACACACCUUUGUCUCUUCAUUGCAACACAGGCAGUUCUUCCAGCACCUUGGCUUCAACAAACAACAGAGGAUUGAGCAUCA
# B4: chr2:159349074:159349175:-|CDS|ENSG00000123636|unk|FALSE|unique (ssRNA)
# RNA: GGGAGUUCUACAGUCCGACGAUCUGGUGUGGUUACUUCUAAUAUUCCAUUUACAUCAUCUGUACCUAGUCUAGGAUCGGGGUUAGGGUUAUCAGAAGGAAAUGGUAAUUCAUUCUUGACUUCCAAUGUUGCUUCAAGUAAAAGCAACAGAGGAUUGAGCAUCA
# B5: ENSG00000198589:be:win_2201|CDS|ENSG00000198589|bound_else_gene|NA|bound_elsewhere_windowed (ssRNA)
# RNA: GGGAGUUCUACAGUCCGACGAUCGAAUCAGGGUACAAGCUCUUAAGGCAAUGGGUUAUUUUUUAAAACAUCUGGCCCCAAAGAGGAAAGCAGAAGUCAUGCUUGGACAUGGAUUGUUUUCAUUGCUAGCUGAAAGGCUCAUGCCAACAGAGGAUUGAGCAUCA
# B6: chr5:56881662:56881777:+|CDS|ENSG00000095015|unk|FALSE|unique (ssRNA)
# RNA: GGGAGUUCUACAGUCCGACGAUCGAUCUACUUGAGUUCUGCAAGAAUGGUUACUACAGUACCCCAUGUGUUUUCAAAACUGUUAGAAAUGCUGAGUGUUUCCAGUUCCACUCACUUCACCAGGAUGCGUCGCCGUUUGAUGGCCAACAGAGGAUUGAGCAUCA
# B7: chr2:128192346:128192447:+|3pUTR|ENSG00000136731|msi1|total|mutant (ssRNA)
# RNA: GGGAGUUCUACAGUCCGACGAUCAGAAAAUGAUGUUACCACUAAAAUAUUUUCUCCAAGAAGGCAUACUGUAACAGAAAAGACCGGUAAGAUAUUUUUUUCCCAAGAAGUAAGAAUUGAUUGUGCUGAAUGUUCAAACUCUGGCAACAGAGGAUUGAGCAUCA
# B8: chr15:22826343:22826444:+|3pUTR|ENSG00000170113|msi1|total|mutant (ssRNA)
# RNA: GGGAGUUCUACAGUCCGACGAUCAAAGUCCAUUACUCUUUUUAUUGGCUCUUGCAGGUUUUGUGUUUUAUCAUCAGUGCUUUCCGAAAUGCAGGCCUUAACUUACUGAACUGAACUUUCUGAAAACGUAAUGCCGCAGUAUCACAACAGAGGAUUGAGCAUCA
# B9: chrX:153456492:153456651:-|CDS|ENSG00000213397|control|control|control (ssRNA)
# RNA: GGGAGUUCUACAGUCCGACGAUCAUGGAGCACUUCGAGGACACCAGGGAGAAGAACGAGGCCUUGCUGGGGGAGCUCUUCUCUAGCCCCCACCUGCAGAUGCUCCUGAAUCCAGAGUGCGACCCGUGGCCCCUGGACAUGCAGCAACAGAGGAUUGAGCAUCA
# B10: chr17:63968022:63968355:-|CDS|ENSG00000007314|control|control|control (ssRNA)
# RNA: GGGAGUUCUACAGUCCGACGAUCGAAAAAGCUGUCGGAUGUGAUGAUCCUCACUGUCUUCUGCCUGAGCGUCUUUGCGCUGGUAGGACUGCAGCUCUUCAUGGGAAACCUGAGGCAGAAGUGUGUGCGCUGGCCCCCGCCGUUCAACAGAGGAUUGAGCAUCA
# B11: chr8:79641408:79641533:+|CDS|ENSG00000104435|unk|total|mutant (ssRNA)
# RNA: GGGAGUUCUACAGUCCGACGAUCCCAGGCUUUUGAGCUGAUCUUGAAGCCACCAUCUCCUAUCUCAGAAGCCCCACGAACUUCCGCUUCUCCAAAGAAGAAAGACCUGUCCCUGGAGGAGAUCCAGAAGAAACUGGAGGCUGCCAACAGAGGAUUGAGCAUCA
# B12: chr12:103777333:103777434:-|3pUTR|ENSG00000111696|msi1|FALSE|unique (ssRNA)
# RNA: GGGAGUUCUACAGUCCGACGAUCUCCUGAACAUUUACGGGCUAUGCAUUGGGAACUGCAGGGGCACAGUGAUGGGCAAAGAUUAGCUGCUUCCAGAAGGCUGAUUUCGUGGGCUCCACAAUGGUAAAACGCUGCUGUGAGUGGCAACAGAGGAUUGAGCAUCA
# B13: ENSG00000156976:stop:overlap|stop_codon|ENSG00000156976|stop_codon|NA|stop_codon (ssRNA)
# RNA: GGGAGUUCUACAGUCCGACGAUCCUUUGGUUAUAAAUUAUGAUCUACCUACCAAUCGUGAAAACUAUAUUCACAGGAGUCGAUAGCAGCAGUUGGUGACGAGAUGGCACUCAGAAACGGCGUUGACGUAAUUUAGGACGUGGACAACAGAGGAUUGAGCAUCA
# B14: chr10:71816642:71816777:-|3pUTR|ENSG00000197746|msi1_unk|total|mutant (ssRNA)
# RNA: GGGAGUUCUACAGUCCGACGAUCUUGUUUGGGGUUCUGUGGGUUUGGGUGGGAAGAGGGCCAUCUGCCUGAAUGUAACCUGCCCGCUCUCCGAAGGCCCUGCGGGCCUGGCUUGUGUGAGCGUGUGGACAGUGGUGGCCGCGCCAACAGAGGAUUGAGCAUCA
# B15: chr18:62902975:62903076:+|CDS|ENSG00000081913|unk|FALSE|unique (ssRNA)
# RNA: GGGAGUUCUACAGUCCGACGAUCAGUGGACUUUCUACAGCAUGUUACUCAGCUUGACCUACGAGACAAUAAGCUUGGUGAUCUAGAUGCUAUGAUUUUCAACAACAUUGAAGUUUUACACUGUGAAAGGAAUCAACUGGUCACCAACAGAGGAUUGAGCAUCA
# B16: chr16:30610213:30610351:-|CDS|ENSG00000289491|control|control|control (ssRNA)
# RNA: GGGAGUUCUACAGUCCGACGAUCCUCCGGUCAAUAAAAUCGAUAGCUGGAAGCUGCCUGUGUUCCAGGCAAAGGCGGUGCGGUAGCAGCGCCGCCAUUUUCCCCGAAGGCAUCUUCCGGUGCCUUUCACCCAAGUUCGGGCAGCAACAGAGGAUUGAGCAUCA
# B17: chr12:101746137:101746238:-|3pUTR|ENSG00000111670|msi1|FALSE|unique (ssRNA)
# RNA: GGGAGUUCUACAGUCCGACGAUCGGUUAGUAAAUUAUUGCAGGCCACCUGUGUCUUUGUCAUACAUUCUUCUUGCUGUUGUUUAGUUUGUUUUUUUUCAAACAACCCUCUAAAAAUGUAAAAACCAUGUUUAGCUUGCAGCUGCAACAGAGGAUUGAGCAUCA
# B18: chr19:41261474:41261596:+|3pUTR|ENSG00000167601|msi1|total|mutant (ssRNA)
# RNA: GGGAGUUCUACAGUCCGACGAUCUCUAAAGGUCCACAGGUCCCGACUAUCCGGUGCAAUUUCAAGGUUCUAACCCUAUACUGCCGUAUUCUUUGGGGUGCCCCUCUCCUUCUCCGCUAUCAUUGCUUCCUCCUCCCCAACUGUCAACAGAGGAUUGAGCAUCA
# B19: chr10:72011937:72012038:+|3pUTR|ENSG00000122863|msi1|FALSE|unique (ssRNA)
# RNA: GGGAGUUCUACAGUCCGACGAUCCAUACACCGCAGGUGGUCACCGAGUUAUUUUCCAAAAGCUGAGGAACAUAAAGCAAAUUUAGGCUUUUGUCCUUCUGCAAUACAUGCACUUGAAAAUAAACAGAAAAGAGAUGUUUAAUACAACAGAGGAUUGAGCAUCA
# B20: ENSG00000198589:be:win_2251|CDS|ENSG00000198589|bound_else_gene|NA|bound_elsewhere_windowed (ssRNA)
# RNA: GGGAGUUCUACAGUCCGACGAUCGCCCCAAAGAGGAAAGCAGAAGUCAUGCUUGGACAUGGAUUGUUUUCAUUGCUAGCUGAAAGGCUCAUGCUUCAGACAAAUUUAAUCACAAUGACCACAUAUAAUGUGCUGUUUGAGAUUCAACAGAGGAUUGAGCAUCA
# B21: ENSG00000107863:be:win_3001|CDS|ENSG00000107863|bound_else_gene|NA|bound_elsewhere_windowed (ssRNA)
# RNA: GGGAGUUCUACAGUCCGACGAUCAGUGAGACCAAGAGGAAAAAUGUGUUUCGACUCACCACGUCCGACUGUGAAUGCCUGUUUCAGGCUGAAGACAGAGAUGAUAUGCUAGCUUGGAUCAAGACGAUCCAGGAGAGCAGCAACCAACAGAGGAUUGAGCAUCA
# B22: chr22:36281740:36281783:-|3pUTR|ENSG00000100345|msi1_unk|FALSE|overlapping (ssRNA)
# RNA: GGGAGUUCUACAGUCCGACGAUCUCUGACAGCCAGAGCGUUAGAGGGGCCAGCGGCCCUCCCAGGCGAUCUUGUGUCUACUCUAGGACUGGGCCCGAGGGUGGUUUACCUGCACCGUUGACUCAGUAUAGUUUAAAAAUCUGCCAACAGAGGAUUGAGCAUCA
# Biological target: T1, UNK ZnF1-6 (called full-length) (human, UniProt Q9C0B0 30-357)
# T1 sequence: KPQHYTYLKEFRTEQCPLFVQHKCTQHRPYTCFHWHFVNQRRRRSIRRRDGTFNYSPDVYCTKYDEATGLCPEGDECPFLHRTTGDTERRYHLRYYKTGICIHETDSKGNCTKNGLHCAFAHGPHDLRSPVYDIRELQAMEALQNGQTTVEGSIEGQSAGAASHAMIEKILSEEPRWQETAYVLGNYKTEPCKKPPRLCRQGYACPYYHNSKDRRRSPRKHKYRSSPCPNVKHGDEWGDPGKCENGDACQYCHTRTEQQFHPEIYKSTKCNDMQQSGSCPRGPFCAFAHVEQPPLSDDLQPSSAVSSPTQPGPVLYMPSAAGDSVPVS
# Assay: nsRBNS (natural sequence RNA bind-n-seq); RBNS binding buffer (assumed for nsRBNS): 25 mM Tris pH 7.5, 150 mM KCl, 3 mM MgCl2, 0.01% Triton X-100, 500 ug/ml BSA, 20 U/ml SUPERase-In, 4 C; UNK is unkempt and MSI1 is Musashi-1; names of the RNAs are library labels; protein concentration not given here; high values mean tight binding
row,Binder,binding signal [enrichment R]
1,B1,0.791
2,B2,0.537
3,B3,0.83
4,B4,0.397
5,B5,0.449
6,B6,0.551
7,B7,0.522
8,B8,0.431
9,B9,0.759
10,B10,0.782
11,B11,0.67
12,B12,0.832
13,B13,0.52
14,B14,0.901
15,B15,0.286
16,B16,0.594
17,B17,1.57
18,B18,0.827
19,B19,0.538
20,B20,0.385
21,B21,0.516
22,B22,0.817
